B1: LINE1-full (parent)
chain: UACGUAGGUGGUUUUCCCCUGAUAGUGCUAAGGGGGCCUGGAAGUUUGGACUGGGCAGAGCUCAACACAGCGUGGCAAAGUGGCUGUGGCUAGACUGCCUCUCUGGAUUCCUCGUCACUCAGCAGGGCAUCUCUGAGAGAAAUGCC

Read counts are not given, so values of variants with three or more changes are uncertain.

This is an account of results in the RNAGym collection of RNA variant scans (doi:10.7554/elife.90254).

The variants in this data set derive from B1. Put plainly: self-cleavage, relative activity (ratio to wild type); higher = more cleavage; in vitro, sequencing; the parent is a self-cleaving ribozyme.
For the variant UACGUAGGAGGUUUUCCCCUGAUAGUGCUAAGGGGGCCUGGAAGUUUGGACUGGGCAGAGCUCAACACAGCGUGGCAAAGUGGCUGUGGCUAGACUGCCUCUCUGGAUACCUCGUCGCUCAGCAGGGCAUCUCUGAGAGAAAUGCC [U9A U109A A117G], the self-cleavage was 0.16.
For UACGUAGGCGGUUUUCCCCUGUUAGUGCUAAGGGGGCCUGGAAGUUUGGACUGGGCAGAGCUCAACACAGCGUGGCAAAGUGGCUGUGGCUAGACUGCCUCUCUGGACUCCUCGUCACUCAGCAGGGCAUCUCUGAGAGAAAUGCC [U9C A22U U108C], the self-cleavage turned out to be 1.56.
As for UACGUAGGAGGUUUUCCCCUGAUAGUGCUAAGGGGGCCUGGAAGUUUGGACUGGGCAGAGCUCAACACAGCGUGGCAAAGCGGCAGUGGCUAGACUGCCUCUCUGGAUUCCUCGUCACUCAGCAGGGCAUCUCAGAGAGAAAUGCC [U9A U81C U85A U134A], the figure is 0.13.
With UACGUAGGAGGUUUUCCCCUGAUAGUGCUAAGGGGGCCUGGAAGUUUGGACUGGGCAGAGCUCAACACAGCGUGGCAAAGUGGCUGUGGCUAGACUGCCUCUCUGGAUUCCUCGUCACGCAGCAGGGCAUCCCUGAGAGGAAUGCC [U9A U119G U132C A140G] the figure was 0.48; with UACGUAGGAGGUUUUCCCCUGAUAGUGCUAAGGGGGCCUGGAAGUUUGGACUGGGCAGAGCCCAACACAGCGUGGCAAAGUGGCUGUGGCUAGACUGCCUCUCUGGAUUCCUCGUCACUCAGCAGGGCAUCUCUGGGAGAAAUGCC [U9A U62C A136G], 0.12.
As to UACGUAGGCGGUUUUCCCCUGGUAGUGCUAAGGAGGCCCGGAAGUUUGGACUGGGCAGAGCUCAACACAGCGUGGCAAAGUGGCUGUGGCUAGACUGCCUCUCUGGAUUCCUCGUCACUCAGCAGGGCAUCUCUGAGGGAAAUGCC [U9C A22G G34A U39C A138G], the self-cleavage stood at 1.15.
Regarding UACGUAGGAGGUUUUCCCCUGAUAGUGCUAAGGGGGCCUGGAAGUUUGGACAGGGCAGAGCUCAACACAGCGUGGCAAAGUGACUGUGGCUAGACUGCCUCCCUGGAUUCCUCGUCACUCAGCAGGGCAUCCCUGAGAGAAAUGCC [U9A U52A G83A U102C U132C], the self-cleavage came to 0.96.
With UACGUAGGAGGUUUUCCCCUGAUAGUGCUAAGGGGGCCUGGAAGUUUGGACUGGGCAGAGCGCAACACAGCGUGGCAAGGUGGCUGUGGCUAGACUGCCUCUCUGGAUUCCUCGUCACCCAGCAGGGCAUCUCUGAGAGAAAUGCC [U9A U62G A79G U119C] the figure was 0.
In the case of UACGUAGGAGGUUUUCCCCUGAUAGUGCUAAGGGGGCCUGGAAGUUUGGACUGGGCAGAGCCCAACACAGCGUGGCAAAGUGGCUGUGGCUAGACUGCCUCUCUGGAUUCCUCGUCACACAGCAGGGAAUCUCUGAGAGAAAUGCC [U9A U62C U119A C128A], the self-cleavage worked out at 0.11.
With UACGUAGGAGGUUUUCCCCUGAUAGUGCUAAGGGGGCCUGGAAGUUUGGACUGGGCAGAGCUCAACACAGCGUGGCAAAGCGGGUGUGGCUAGACUGCCUCUCUGGAUUCCUCGUCACUCAGCAGGGCAUCCCUGAGAGAAACGCC [U9A U81C C84G U132C U143C] the figure was 0.7; with UACGUAGGAGGUUUUCCCCUGAUAGUGCUAAGGGGGCCUGGAAGUUUGGACUGGGCAGAGCUCAACACAGCGUGGCAAAGUGGCUGUGGCUAGACUGCCUCUCAGGAUUCCUCGUCACUCAGCAGGGCAUCUCAGAGAGAAAUGCC [U9A U104A U134A], 1.31; with UACGUAGGAGGUUUUCCCCUGAUAGUGCUAAGGGGGCCUGGAAGUUUGGACUGGGCAGAGCUCAACACAGCGUGGCAAAGUGGCCGUGGCUAGACGGCCUCUCCGGAUUCCUCGUCACUCAGCAGGGCAUCUCUGAGAGAAAUGCC [U9A U85C U96G U104C], 0.84.
As for UACGUAGGAGGUUUUCCCCUGAUAGUGCUAAGGGGGCCUGGAAGUUUGGACUGGGCAGAGCUCAACACAGCGUGGCAAAGUGGCUGUGGCUAGACUGCCUCUCUGGAUACCUCGUCACUCAGCAGGGCAUCUCUGAGAGAAGUGCC [U9A U109A A142G], the figure is 0.73; as for UACGUAGGCGGUUUUCCCCUGGUAGUGCUAAGGGGGCCUGGAAGUUUGGACUGGACAGAGCUCAACACAGCGUGGCAAAGAGGCUGUGGCUAGACUGCCUCUCUGGAUCCCUCGUCACUCAGCAGGGCAUCUCUGAGAGAAGUGCC [U9C A22G G55A U81A U109C A142G], 0.11.
On to UACGUAGGAGGUUUUCCCCUGAUAGUGCUAAGGGGGCCUGGAAGUUUGGACUGGGCAGAGCUCAACACAGCGAGGCAAAGUGGCUGUGGCUAGACUGCCUCUCAGGAUUCCUCGUCACUCAGCAGGGCAUCUCUGAGAGUAAUGCC [U9A U73A U104A A140U], for which the self-cleavage is 0.91.
As for UACGUAGGCGGUUUUCCCCUGGUAGUGCUAAGGGGGCCUGGAAGAUUGGACUGGGCAGAGCUCAACACAGCGAGGCAAAGUGGCUGUGGCUAGACUGCCUCUCUGGAUUCCUCGUCACUCAGCAGGGCAUCUCUGAGAGAAAUGCC [U9C A22G U45A U73A], the figure is 1; as for UACGUAGGAGGUUUUCCCCUGAUAGUGCUAAGGGGGCCUGGAAGUUUGGACUGGGCAGAGCUCAACACAGCGUGGCAAAGUGGCUGUGGCUAGACUGCCCCUCUGGAUUCCUCGUCACCCAGCAGGGCAUCUCUGAGAGAAAUGCC [U9A U100C U119C], 1.48.
As to UACGUAGGAGGUUUUCCCCUGAUAGUGCUAAGGGGGCCUGGAAGUUUGGACUGGGCAGAGCUCAACACAGCGAGGCAAAGUGGCUGCGGCUAGACUGCCUCUCUGGAUUCCUCGACACUCAGCAGGGCAUCUCUGAGAGAAAUGCC [U9A U73A U87C U115A], the self-cleavage amounted to 0.09.
With UACGUAGGAGGUUUUCCCCUGAUAGUGCUAAGGGGGCCUGGAAGUUUGGACUGGGCAGAGCACAACACAGCGUGGCAAAGAGGCUGUGGCUAGACUGCCUCUCUGGAUUCCUCGUCACUCAGCCGGGCAUCUCUGAGAGAAAUGCC [U9A U62A U81A A124C] the figure was 0.04; with UACGUAGGAGGUUUUCCCCUGAUAGUGCUAAGGGGGCCUGGAAGUUUGGACUGGGCAGAGCUCAACACAGCGUGGCAAAGUGGCUGUGGCUAGACUGCCCCUCUGGAUUCCUCGUCACACAGCAGGGCAUCUCUGAGAGAAGUGCC [U9A U100C U119A A142G], 1.78.
